Assay results taken from the supplement of paper PMC8728848.
This is one part of the list.

How the values were obtained:
Assay in all cases: glycan array binding signal (z-score within array); higher = stronger binding
Conditions in all cases: glycan notation: IUPAC condensed, linker removed
[1] = target: Gal(b1-4)GlcNAc(b1-2)[Gal(b1-4)GlcNAc(b1-6)]Man(a1-6)[GlcNAc(b1-4)][Gal(b1-4)GlcNAc(b1-2)Man(a1-3)]Man(b1-4)GlcNAc(b1-4)GlcNAc
In short: (§1)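 The binding signal is a Z-score computed within each array and averaged over linkers. Arrays of the same protein sequence at different concentrations or buffers were also averaged together. Data originate from 3228 arrays in the Consortium for Functional Glycomics database, kept only where the protein sequence was available.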

[2] = target: Gal(b1-4)GlcNAc(b1-2)[Gal(b1-4)GlcNAc(b1-6)]Man(a1-6)[GlcNAc(b1-4)][Gal(b1-4)GlcNAc(b1-2)[Gal(b1-4)GlcNAc(b1-4)]Man(a1-3)]Man(b1-4)GlcNAc(b1-4)[Fuc(a1-6)]GlcNAc
In short: as §1

[3] = target: Gal(b1-4)GlcNAc(b1-3)Gal(b1-3)GalNAc
In short: as §1

[4] = target: Gal(b1-4)GlcNAc(b1-3)Gal(b1-3)GlcNAc
In short: as §1

[5] = target: Gal(b1-4)GlcNAc(b1-3)Gal(b1-4)Glc
In short: as §1

[6] = target: Gal(b1-4)GlcNAc(b1-3)Gal(b1-4)GlcNAc
In short: as §1

[7] = target: Gal(b1-4)GlcNAc(b1-3)Gal(b1-4)GlcNAc(b1-2)Man(a1-3)[Gal(b1-4)GlcNAc(b1-3)Gal(b1-4)GlcNAc(b1-2)Man(a1-6)]Man(b1-4)GlcNAc(b1-4)GlcNAc
In short: as §1

[8] = target: Gal(b1-4)GlcNAc(b1-3)Gal(b1-4)GlcNAc(b1-2)Man(a1-3)[Gal(b1-4)GlcNAc(b1-3)Gal(b1-4)GlcNAc(b1-2)Man(a1-6)]Man(b1-4)GlcNAc(b1-4)[Fuc(a1-6)]GlcNAc
In short: as §1

[9] = target: Gal(b1-4)GlcNAc(b1-3)Gal(b1-4)GlcNAc(b1-2)[Gal(b1-4)GlcNAc(b1-3)Gal(b1-4)GlcNAc(b1-6)]Man(a1-6)[Gal(b1-4)GlcNAc(b1-3)Gal(b1-4)GlcNAc(b1-2)Man(a1-3)]Man(b1-4)GlcNAc(b1-4)GlcNAc
In short: as §1

[10] = target: Gal(b1-4)GlcNAc(b1-3)Gal(b1-4)GlcNAc(b1-2)[Gal(b1-4)GlcNAc(b1-3)Gal(b1-4)GlcNAc(b1-6)]Man(a1-6)[Gal(b1-4)GlcNAc(b1-3)Gal(b1-4)GlcNAc(b1-2)Man(a1-3)]Man(b1-4)GlcNAc(b1-4)[Fuc(a1-6)]GlcNAc
In short: as §1

[11] = target: Gal(b1-4)GlcNAc(b1-3)Gal(b1-4)GlcNAc(b1-3)Gal(b1-4)GlcNAc
In short: as §1

[12] = target: Gal(b1-4)GlcNAc(b1-3)Gal(b1-4)GlcNAc(b1-3)Gal(b1-4)GlcNAc(b1-2)Man(a1-3)[Gal(b1-4)GlcNAc(b1-3)Gal(b1-4)GlcNAc(b1-3)Gal(b1-4)GlcNAc(b1-2)Man(a1-6)]Man(b1-4)GlcNAc(b1-4)GlcNAc
In short: as §1

[13] = target: Gal(b1-4)GlcNAc(b1-3)Gal(b1-4)GlcNAc(b1-3)Gal(b1-4)GlcNAc(b1-2)Man(a1-3)[Gal(b1-4)GlcNAc(b1-3)Gal(b1-4)GlcNAc(b1-3)Gal(b1-4)GlcNAc(b1-2)Man(a1-6)]Man(b1-4)GlcNAc(b1-4)[Fuc(a1-6)]GlcNAc
In short: as §1

[14] = target: Gal(b1-4)GlcNAc(b1-3)Gal(b1-4)GlcNAc(b1-3)Gal(b1-4)GlcNAc(b1-2)[Gal(b1-4)GlcNAc(b1-3)Gal(b1-4)GlcNAc(b1-3)Gal(b1-4)GlcNAc(b1-6)]Man(a1-6)[Gal(b1-4)GlcNAc(b1-3)Gal(b1-4)GlcNAc(b1-3)Gal(b1-4)GlcNAc(b1-2)Man(a1-3)]Man(b1-4)GlcNAc(b1-4)[Fuc(a1-6)]GlcNAc
In short: as §1

[15] = target: Gal(b1-4)GlcNAc(b1-3)Gal(b1-4)GlcNAc(b1-3)Gal(b1-4)GlcNAc(b1-3)Gal(b1-4)GlcNAc(b1-2)Man(a1-3)[Gal(b1-4)GlcNAc(b1-3)Gal(b1-4)GlcNAc(b1-3)Gal(b1-4)GlcNAc(b1-3)Gal(b1-4)GlcNAc(b1-2)Man(a1-6)]Man(b1-4)GlcNAc(b1-4)GlcNAc
In short: as §1

[16] = target: Gal(b1-4)GlcNAc(b1-3)Gal(b1-4)GlcNAc(b1-3)Gal(b1-4)GlcNAc(b1-3)Gal(b1-4)GlcNAc(b1-2)Man(a1-3)[Gal(b1-4)GlcNAc(b1-3)Gal(b1-4)GlcNAc(b1-3)Gal(b1-4)GlcNAc(b1-3)Gal(b1-4)GlcNAc(b1-2)Man(a1-6)]Man(b1-4)GlcNAc(b1-4)[Fuc(a1-6)]GlcNAc
In short: as §1

[17] = target: Gal(b1-4)GlcNAc(b1-3)Gal(b1-4)GlcNAc(b1-3)Gal(b1-4)GlcNAc(b1-3)Gal(b1-4)GlcNAc(b1-2)[Gal(b1-4)GlcNAc(b1-3)Gal(b1-4)GlcNAc(b1-3)Gal(b1-4)GlcNAc(b1-3)Gal(b1-4)GlcNAc(b1-6)]Man(a1-6)[Gal(b1-4)GlcNAc(b1-3)Gal(b1-4)GlcNAc(b1-3)Gal(b1-4)GlcNAc(b1-3)Gal(b1-4)GlcNAc(b1-2)Man(a1-3)]Man(b1-4)GlcNAc(b1-4)[Fuc(a1-6)]GlcNAc
In short: as §1

[18] = target: Gal(b1-4)GlcNAc(b1-3)Gal(b1-4)GlcNAc(b1-3)Gal(b1-4)GlcNAc(b1-3)Gal(b1-4)GlcNAc(b1-3)Gal(b1-4)GlcNAc(b1-2)Man(a1-3)[Gal(b1-4)GlcNAc(b1-3)Gal(b1-4)GlcNAc(b1-3)Gal(b1-4)GlcNAc(b1-3)Gal(b1-4)GlcNAc(b1-3)Gal(b1-4)GlcNAc(b1-2)Man(a1-6)]Man(b1-4)GlcNAc(b1-4)GlcNAc
In short: as §1

[19] = target: Gal(b1-4)GlcNAc(b1-3)Gal(b1-4)GlcNAc(b1-3)Gal(b1-4)GlcNAc(b1-3)Gal(b1-4)GlcNAc(b1-3)Gal(b1-4)GlcNAc(b1-2)Man(a1-3)[Gal(b1-4)GlcNAc(b1-3)Gal(b1-4)GlcNAc(b1-3)Gal(b1-4)GlcNAc(b1-3)Gal(b1-4)GlcNAc(b1-3)Gal(b1-4)GlcNAc(b1-2)Man(a1-6)]Man(b1-4)GlcNAc(b1-4)[Fuc(a1-6)]GlcNAc
In short: as §1

[20] = target: Gal(b1-4)GlcNAc(b1-3)Gal(b1-4)GlcNAc(b1-3)Gal(b1-4)GlcNAc(b1-3)Gal(b1-4)GlcNAc(b1-3)Gal(b1-4)GlcNAc(b1-2)[Gal(b1-4)GlcNAc(b1-3)Gal(b1-4)GlcNAc(b1-3)Gal(b1-4)GlcNAc(b1-3)Gal(b1-4)GlcNAc(b1-3)Gal(b1-4)GlcNAc(b1-6)]Man(a1-6)[Gal(b1-4)GlcNAc(b1-3)Gal(b1-4)GlcNAc(b1-3)Gal(b1-4)GlcNAc(b1-3)Gal(b1-4)GlcNAc(b1-3)Gal(b1-4)GlcNAc(b1-2)Man(a1-3)]Man(b1-4)GlcNAc(b1-4)[Fuc(a1-6)]GlcNAc
In short: as §1

[21] = target: Gal(b1-4)GlcNAc(b1-3)Gal(b1-4)GlcNAc(b1-3)Gal(b1-4)GlcNAc(b1-3)Gal(b1-4)GlcNAc(b1-3)Gal(b1-4)GlcNAc(b1-3)Gal(b1-4)GlcNAc(b1-2)Man(a1-3)[Gal(b1-4)GlcNAc(b1-3)Gal(b1-4)GlcNAc(b1-3)Gal(b1-4)GlcNAc(b1-3)Gal(b1-4)GlcNAc(b1-3)Gal(b1-4)GlcNAc(b1-3)Gal(b1-4)GlcNAc(b1-2)Man(a1-6)]Man(b1-4)GlcNAc(b1-4)GlcNAc
In short: as §1

[22] = target: Gal(b1-4)GlcNAc(b1-3)Gal(b1-4)GlcNAc(b1-3)GalNAc
In short: as §1

[23] = target: Gal(b1-4)GlcNAc(b1-3)Gal(b1-4)GlcNAc(b1-3)[Gal(b1-4)GlcNAc(b1-3)Gal(b1-4)GlcNAc(b1-6)]GalNAc
In short: as §1

[24] = target: Gal(b1-4)GlcNAc(b1-3)Gal(b1-4)GlcNAc(b1-6)[Gal(b1-3)]GalNAc
In short: as §1

[25] = target: Gal(b1-4)GlcNAc(b1-3)Gal(b1-4)[Fuc(a1-3)]GlcNAc(b1-3)Gal(b1-4)[Fuc(a1-3)]GlcNAc
In short: as §1

[26] = target: Gal(b1-4)GlcNAc(b1-3)GalNAc
In short: as §1

[27] = target: Gal(b1-4)GlcNAc(b1-3)[Fuc(a1-3)GlcNAc(b1-6)]Gal(b1-4)Glc
In short: as §1

[28] = target: Gal(b1-4)GlcNAc(b1-3)[Gal(b1-4)GlcNAc(b1-6)]Gal(b1-4)GlcNAc
In short: as §1

[29] = target: Gal(b1-4)GlcNAc(b1-3)[Gal(b1-4)GlcNAc(b1-6)]GalNAc
In short: as §1

[30] = target: Gal(b1-4)GlcNAc(b1-3)[GlcNAc(b1-6)]Gal(b1-4)GlcNAc
In short: as §1

[31] = target: Gal(b1-4)GlcNAc(b1-6)Gal(b1-4)GlcNAc
In short: as §1

[32] = target: Gal(b1-4)GlcNAc(b1-6)GalNAc
In short: as §1

[33] = target: Gal(b1-4)GlcNAc(b1-6)[Gal(b1-3)]GalNAc
In short: as §1

[34] = target: Gal(b1-4)GlcNAc(b1-6)[Gal(b1-3)]GlcNAc
In short: as §1

[35] = target: Gal(b1-4)GlcNAc(b1-6)[Gal(b1-4)GlcNAc(b1-3)]GalNAc
In short: as §1

[36] = target: Gal(b1-4)GlcNAc6P
In short: as §1

[37] = target: Gal(b1-6)Gal
In short: as §1

B1: MGL1 (Mus musculus), P49300 (protein)
chain: MIYENLQNSRIEEKTQEPGKAPSQSFLWRILSWTHLLLFSLGLSLLLLVVVSVIGSQNSQLRRDLGTLRATLDNTTSKIKAEFQSLDSRADSFEKGISSLKVDVEDHRQELQAGRDLSQKVTSLESTVEKREQALKTDLSDLTDHVQQLRKDLKALTCQLANLKNNGSEVACCPLHWTEHEGSCYWFSESEKSWPEADKYCRLENSHLVVVNSLEEQNFLQNRLANVVSWIGLTDQNGPWRWVDGTDFEKGFKNWAPLQPDNWFGHGLGGGEDCAHITTGGPWNDDVCQRTFRWICEMKLAKES
[1]
  glycan array binding signal (z-score): -0.006
[2]
  glycan array binding signal (z-score): -0.144
[3]
  glycan array binding signal (z-score): -0.176
[4]
  glycan array binding signal (z-score): 0.058
[5]
  glycan array binding signal (z-score): 0.046
[6]
  glycan array binding signal (z-score): 0.348
[7]
  glycan array binding signal (z-score): 2.62
[8]
  glycan array binding signal (z-score): 1.8
[9]
  glycan array binding signal (z-score): 1.75
[10]
  glycan array binding signal (z-score): 1.32
[11]
  glycan array binding signal (z-score): 0.02
[12]
  glycan array binding signal (z-score): 3.01
[13]
  glycan array binding signal (z-score): 1.69
[14]
  glycan array binding signal (z-score): 1.8
[15]
  glycan array binding signal (z-score): 1.67
[16]
  glycan array binding signal (z-score): 1.92
[17]
  glycan array binding signal (z-score): 1.69
[18]
  glycan array binding signal (z-score): 2.31
[19]
  glycan array binding signal (z-score): 0.968
[20]
  glycan array binding signal (z-score): 1.12
[21]
  glycan array binding signal (z-score): -0.247
[22]
  glycan array binding signal (z-score): 1.94
[23]
  glycan array binding signal (z-score): 1.23
[24]
  glycan array binding signal (z-score): 2.14
[25]
  glycan array binding signal (z-score): -0.392
[26]
  glycan array binding signal (z-score): -0.324
[27]
  glycan array binding signal (z-score): 4.54
[28]
  glycan array binding signal (z-score): -0.485
[29]
  glycan array binding signal (z-score): -0.115
[30]
  glycan array binding signal (z-score): -0.459
[31]
  glycan array binding signal (z-score): 0.351
[32]
  glycan array binding signal (z-score): 1.27
[33]
  glycan array binding signal (z-score): 0.507
[34]
  glycan array binding signal (z-score): -0.087
[35]
  glycan array binding signal (z-score): -0.119
[36]
  glycan array binding signal (z-score): -0.635
[37]
  glycan array binding signal (z-score): -0.428
